# Laboratory results as given in the supplement of paper PMC11417369.
# ± gives the standard deviation of the averaged measurements. Some of the results follow.
# Test system: PfAP2-EXP AP2 domain (GST-tagged)
# Test: gcPBM binding intensity (ln(normalized median fluorescence intensity)); higher = stronger DNA binding
# In short: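 Binding intensity is defined as the maximum Masliner-normalised natural-log median intensity across replicate spots for either probe orientation. It was measured on an Agilent 4 × 180k array of primer-extended double-stranded 36-bp intergenic genomic probes and negative controls, to which GST-tagged P. falciparum DNA-binding domains made in E. coli were applied for 1 h in 1× PBS with 1% milk, 0.2 mg/ml BSA, 0.5% salmon testes DNA and 0.03% Triton X-100. Detection was by Alexa488 anti-GST antibody and scanning at 488 nm.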
row,Sequence,gcPBM binding intensity (ln)
1,ATCAAAAGAAGACACACACACATACCTATAAATATA [CACACA_site7736],8.59 ± 0.45
2,TTATTATTATTACTTACGCACACTTTTTTTTTTATT [CACACA_site411],9.02 ± 0.35
3,ATAGGATATTATTCCTGTACATATATATATATATAT [XGTACX_site2108],10.1 ± 0.33
4,GACAATTATATGTAGGTGCATATACAAATTTTTTAA,8.81 ± 0.099
5,TGTAATATATGTATTGCACACCTATAACCATTATTT [CACACA_site8422],8.62 ± 0.28
6,ATAATTATATTTAGTGGTACTACTTTTGATAATTAG [XGTACX_site6562],8.47 ± 0.33
7,TATAAGTGCCGTTATACACACGTTATATAAATATTA [CACACA_site4401],8.34 ± 0.19
8,AGTAGAATATCCCCTACACACCCAAGTAATTTACAA [CACACA_site6708],9.24 ± 0.82
9,AAATGTGAAAAAGAGTGTACCCGACTTGAAATTAAG [XGTACX_site8621],8.9 ± 0.38
10,TTTAATTTTCAATGGCGTACATATAAAATATTATAT [XGTACX_site1672],8.44 ± 0.38
11,AATTAAAAGTGAAGAGTGCATAGAATTTTTTACTTT [GTGCAC_site9973],8.55 ± 0.33
12,ATATGCACTTTTTGCACACGTATGAATAACAAAATA [CACACA_site1810],8.96 ± 0.15
13,GATGAATAATATGTATGTACATATGCATTATGATGT [XGTACX_site7655],8.72 ± 0.27
14,ACATATAGATAAATATGTACATATATATATATATAT [XGTACX_site1806],10 ± 0.41
15,TTATCATATCATGGAAGTACAAATAAAATATATAAC [XGTACX_site1608],9.02 ± 0.35
16,TTTTCTGTGTTTACATGTACGAAAGATTAATATTAT [XGTACX_site5214],8.71 ± 0.45
17,ATTTGATAGACACATGCACACATGCAATACTTTATT [CACACA_site5633],8.94 ± 0.35
18,ATATATATATATATATCACACATTAATAATATATAT [CACACA_site5081],10.1 ± 0.42
19,TACATACATACATACACACACATATAGATTTATATA [CACACA_site6999],9.02 ± 0.16
20,TATATAAAAATATACACACACAAATGTATATATATA [CACACA_site220],8.86 ± 0.13
21,ATCAATCATGGTTTTACACACACATGCATGTGAAAA [CACACA_site1350],9.28 ± 0.28
22,TTTTTTTTTTTTTTTAAACACACGGTGTGAAAATTA [CACACA_site3818],8.29 ± 0.49
23,ATAATTTTGTATAATTGTACATTATTTTAAATAAAT [XGTACX_site7952],8.28 ± 0.29

row,Sequence,gcPBM binding intensity (ln)
1,AAAACATAACATTGTTGTACTACTAATAAAATAAGT [XGTACX_site6149],8.7 ± 0.085
2,TCTTTATTATTCGCCACACACATATAAATATAAATA [CACACA_site7441],8.88 ± 0.38
3,TTCTTGTTCCTGAAAGTGCATATAACAAAAATAACA [GTGCAC_site9635],8.65 ± 0.21
4,ATAATTACATTCCATACACACATATATTTAAAGGTT [CACACA_site7403],8.59 ± 0.46
5,AATGATATATTTAAATGTACACATGAAATATAATAT [XGTACX_site2678],8.6 ± 0.3
6,TATCTTCAAGTATGTACACACTATATATAATAAAAT [CACACA_site5368],8.66 ± 0.31
7,TTATATTTGATAGTTTGTACATATAATTATTATCAT [XGTACX_site5676],8.7 ± 0.41
8,TCTTCTTTAAAAGAGGTGCACTATATAATGTGATTA [GTGCAC_site9431],8.89 ± 0.042
9,TAATTATACTTATTTTGTACGCAATATTTAAAATAA [XGTACX_site8516],8.54 ± 0.62
10,ACATATAAATGATATGTACACACATTTATATATATA [CACACA_site9152],8.85 ± 0.071
11,ATTTCTCTATCGTAATGTACAAAAAAAAGGAAAAAA [XGTACX_site1323],8.64 ± 0.54
12,TTTTTAACGTATAAGGTGCACTGTATATGGTACTCA,9.39 ± 0.61
13,GACAAATGAAAAGATTGTACATGTATTTGAAGATTA [XGTACX_site6775],8.81 ± 0.38
14,TCTTTTATATTTTTTTGTACACAAGAATAAAGAAAA [XGTACX_site3394],8.62 ± 0.5
15,TGATTATATATAAATGTATGCATGTCTATTATGCTA [TGCATGCA_site543],8.43 ± 0.38
16,TACACAAAAATTTATACACACACATATATAATATAT [CACACA_site7931],8.49 ± 0.35
17,TATATATATATATATTGTACACATACATGTAGTTTT [XGTACX_site4848],10.2 ± 0.29
18,AAAGTAATATATAATACATGCGTAAATATTTATGTA [TGCATGCA_site254],8.86 ± 0.42
19,TATATATATATATAGGTGCAATATTGAAAAAATATC [GTGCAC_site9535],10.3 ± 0.21
20,TGCTTCTTTTAAAAACATGTTTGTATTCATTTTATA [CACACA_negctrl_site1627],8.97 ± 0.5
21,TTTTGGATGAACAGTACATGCAAAAACAAACTTGTA [TGCATGCA_site16],9.04 ± 0.43
22,ATTATATTATATATATGTACATATATATATCATAAT [XGTACX_site1],8.35 ± 0.23
23,ATAATACCATTAATTTGTACATATATATTATATATA [XGTACX_site4345],8.51 ± 0.35

row,Sequence,gcPBM binding intensity (ln)
1,ACAAAAAGTTACATACGTACGTAAAATTGTAATAAA [XGTACX_site2358],8.66 ± 0.23
2,TTTATTTTAAATTTACGTACATAATTAATCATATTT [XGTACX_site7529],8.56 ± 0.45
3,ATAAAAAATTAGGACTGTACATAATTTTTGTGATTT [XGTACX_site2857],8.46 ± 0.33
4,TATATATATAAGGATAGTACATATATTTATATGATT [XGTACX_site4954],9.15 ± 0.12
5,TTATATATTTCTATTGCACACTATATTTTATGAAGA [CACACA_site2910],8.76 ± 0.34
6,AGGTTATAATTGTTTTCACACATTTAAAAATGTTAT [CACACA_site5097],8.6 ± 0.4
7,TTAACTTATTTGTAAAGTACATTAATAAAAAGAAAA [XGTACX_site1588],8.47 ± 0.37
8,GACTACACACAAGGGTGTACATATATATTATATATA [XGTACX_site2247],8.38 ± 0.32
9,GTATAATAAATGATAGCACACATATGTACTTATATA [CACACA_site8188],8.57 ± 0.25
10,ATGAAATTTATATCATGTACATACAAGAGAAAAAAA [XGTACX_site3326],8.62 ± 0.42
11,AAAATTATAAAATGGGCACACATGAATATTGTAGTA [CACACA_site5261],8.62 ± 0.57
12,AAAAAAAAAATATACACACACACATACCCATAAATA [CACACA_site5981],8.73 ± 0.59
13,GATCGCATGAAATGAACACACATAAAAAAAATATAC [CACACA_site4087],8.88 ± 0.4
14,TTATAAAAATACAGTTAACACACATGTGTATATATA [CACACA_site9257],8.64 ± 0.35
15,AAAATAATCTTATGCACACCAAAAATTTATATAATC [CACACA_site1235],8.48 ± 0.32
16,TAATGCAACATTTATGTGCACATAAATATTTTTTAA,8.6 ± 0.21
17,AAAACACAATTTATTACACACATATATTATAGATTA [CACACA_site6780],8.23 ± 0.45
18,TTTTTTTTTTATTCATGTACGTATTTAAATAATTCT [XGTACX_site2651],8.64 ± 0.41
19,GAGTTTTAATGTAATAGTACTTTAATTATTATATAT [XGTACX_site4527],8.49 ± 0.33
20,ATCTTTTATATATTCACACATAAAATTATACAGATA [CACACA_site5277],8.52 ± 0.42
21,TATTTTTATTTTACATTATTTGTTTATAATTCTTAA [CACACA_negctrl_site1358],8.5 ± 0.41
22,TGTATATACATAAAGTGTACGTATATTTATATATAT [XGTACX_site4320],8.63 ± 0.25
23,ATATATATATATAATGCACACATTATAAATTATGTA [CACACA_site5802],9.97 ± 0.2

row,Sequence,gcPBM binding intensity (ln)
1,AATAAATAAATAAATATATATATATATATATATATA [CACACA_negctrl_site708],10.1 ± 0.41
2,AAAAAAAAAAAAAACACACAAACAAATGAATAAATA [CACACA_site3300],8.5 ± 0.72
3,AACAAAAGAAAAAAATATATATATTCGTCCTATTTT [CACACA_negctrl_site444],8.33 ± 0.48
4,CATCTGGTATCTAATAGTACATATATATAATATCTT [XGTACX_site2774],8.46 ± 0.4
5,TTAAAAAATATATACGTTGATATAATACAACTTGAC [CACACA_negctrl_site1551],8.36 ± 0.29
6,ATGTGTATATGTTAATGTACAAATTTTGAAAATGCC [XGTACX_site2685],8.97 ± 0.32
7,TGTATAACCATAAATTGTACAGAAAAAAGTATAAAA [XGTACX_site1493],8.79 ± 0.4
8,TATATATGCATTAAAGTGTTTTTTTTTTTTTTTTTT [CACACA_negctrl_site1353],8.79 ± 0.2
9,ATTTTTTTTTTTTATGGTACACACACGCGTATGGTT [XGTACX_site3888],8.63 ± 0.44
10,TTTCAACTTTTGTCATGTACACATAATTTTATTGCA [XGTACX_site6701],8.89 ± 0.44
11,ATTTATTTATCAAATATTATCTTAAAAAAAAAAGAA [CACACA_negctrl_site1345],8.21 ± 0.46
12,ATATTAAATATATACAGTACACATTACAATACAATA [XGTACX_site3221],8.64 ± 0.24
13,CTTTGTAGTTGGTCCACACACATATCTGGAAGAATA [CACACA_site4834],8.54 ± 0.39
14,TTTCTTAAACCGTACAGTACACACCTTTATAATGTT [XGTACX_site434],8.76 ± 0.32
15,TATTTTCCATGAGGTAGTACACATTAAAAAATCGTT [XGTACX_site6887],8.44 ± 0.29
16,TAAGCGTTTTTTAAAACACACATAAGAACTAAATGA [CACACA_site1670],8.63 ± 0.47
17,AAGGTTTTGGGTTTTAATTAATTTAATATGATTATA [XGTACX_negctrl_site147],8.46 ± 0.59
18,TTACACCTTAGGATCTGTACAAATATATGACAAATC [XGTACX_site4333],8.47 ± 0.53
19,TAATATTAAAAAGAGACACACAAAAATATTAAAAAA [CACACA_site3120],8.72 ± 0.58
20,CGACTTTTAAAATATACACACATATAAATAAATATA [CACACA_site6523],8.35 ± 0.46
